Measurements published in article PMC2364705.

Biological target: microtubules (MTs) assembled from purified tubulin
Test: co-sedimentation

A Kd of 6.1 µM and a stoichiometry N (scale: tubulin per mDia2) of 4.7 were found for “His-FH1FH2mDia2, wild type ([…]) (a stretch of the chain, sequence not shown) (domain or fragment)” in this work.
